# Experimental data reported in PubChem BioAssay (NCATS).
# Values joined by “and” are separate entries in the source; they are usually repeats but may differ in a detail not shown here. Equal values may be shown once. Inconclusive means that the source gave no clear call. Such entries were picked first, then a sample of the others. Where the call is inconclusive, the potency comes from a doubtful curve fit. Active and inactive are the calls of the source. The call rests on the fitted dose curve; in most records, active means well fitted inhibition curve with a large enough effect; inconclusive means small, poorly fitted or top-dose-only effect; inactive means no such curve, though single readings can be large or run the other way.
# Experiment: Primary qHTS for inhibitors of nuclear receptor binding SET domain protein 2 (NSD2) in an RCH-ACV wild type WT cells (2C) (AID 1645877); further: nearly all actives have a fitted effect of over 70% in size
# Conditions: RCH-ACV (leukaemia line) NSD2 WT (2C) viability, CellTiter-Glo, 72 h; series mostly up to 44.9 µM
# Potency means the concentration at half of the fitted maximal effect; tags describe the fitted curve by direction and shape.
row,Structure (SMILES),Potency
1,O=C(Nc1ccc(Cl)cc1F)c1ccccc1O,"inconclusive: 23 µM [inhibitor, single point]"
2,C[C@@H](N[C@H]1CCCC[C@@H]1NC(=O)c1ccc(Cl)cc1)c1cccc2ccccc12,active: 9.16 µM
3,N#Cc1cc(-c2ccnc(Nc3ccc(N4CCOCC4)cc3)n2)ccc1OC1CCOCC1,"inconclusive: 1.63 µM [inhibitor, full curve]"
4,C#Cc1cccc(Nc2nc3cc(C(=O)O)ccc3c3cncnc23)c1,active: 2.58 µM
5,C=C(C(=O)O)C1CC2=C(C)C(=O)CC2C(C)CC1O (stereo unspecified),active: 5.78 µM
6,COc1cc(C[C@H]2C(=O)OC[C@@H]2Cc2ccc(OC)c(OC)c2)ccc1O,"inconclusive: 2.26 µM [inhibitor, partial curve]"
7,O=C(Nc1ccc(-c2ccnc(Nc3ccc(N4CCOCC4)cc3)n2)cc1)C1CCCN1 (stereo unspecified),"active: 4.11 µM and inconclusive: 5.9 µM [inhibitor, partial curve]"
8,CCN1CCN(Cc2ccc(NC(=O)c3ccc(C)c(Oc4ccnc5[nH]ccc45)c3)cc2C(F)(F)F)CC1,active: 0.713 µM
9,C=CC(=O)N1CCC(Oc2cc3c(Nc4ccc(Cl)c(Cl)c4F)ncnc3cc2OC)CC1,active: 4.68 µM
10,O=C(Nc1nc2cc(C(F)(F)F)cc(NC3CC3)n2n1)c1cccnc1,active: 1.83 µM
11,CC(C)(O)C1CC(=O)C2(C)C(CCC3(C)C(c4ccoc4)OC(=O)C4OC432)C12CCC(=O)OC2 (stereo unspecified),"inconclusive: 7.96 µM [inhibitor, single point]"
